Source: patent US20260224572A1, “TREATING CANCER WITH AN ADENOSINE A2A INHIBITOR” (IMPETIS BIOSCIENCES LIMITED, priority 2023, published 2026)
Where two headings read alike, the source gives them in different places.

Target: T1, A2A receptor (Rattus norvegicus, UniProt P30543)
T1 construct: The brains were removed and striata dissected and collected; from tissue; host or cells: Wistar rat brain striatum homogenate
Assay: Ex vivo A2A receptor occupancy assay in rat brain striatum after oral dosing
Details: read-out: % Receptor Occupancy ± SEM; for receptor occupancy at 1 mg/kg: 1 mg/kg PO
Description: The objective of this study was to determine A2A receptor occupancy of PNQ-370 in rat brain striatum after oral dosing by ex vivo receptor occupancy assay.
PNQ-370 was prepared at specified doses in 0.5% Tween-80+0.5% CMC, q.s., 3 ml/kg, for oral (PO) administration.
At specified time points after dosing, animals were euthanized with isofurane before decapitation. The brains were removed and striata dissected and collected. 50 mg of tissue was collected in 100 μl of assay buffer (20 mM Tris pH7.4, 120 mM NaCl, 5 mM KCl, 10 mM MgCl2 and 1 mM CaCl2)). Tissue was titurated nicely using pipetteman (~15 min/tube) and prepared smooth homogenized sample. To the homogenate adenosine diaminase (ADA) was added at a final concentration of 30 u/ml and incubated on shaker at room temperature for 60 minutes. Protein estimation of the homogenized striatal tissue sample was carried out using Bradford assay method (Sigma Cat #B6916).
[…]. […] The reaction mixtures were incubated for 60 minutes at room temperature (about 25° C.). The membrane receptor/ligand complex was collected onto a 96-well glass fiber filter mat (Wallac Cat #1450-421) under vacuum, washed free of unbound ligand with cold 20 mM Tris pH7.4 buffer, and allowed to dry at 55° C. To the dried filter mat 15 µL/well of scintillation fluid (Optiphase supermix, Perkin Elmer Cat No: 1200-439) was added and fitted to filter mat 96 well holder and counted in MicroBeta Trilux plate counter.
Counts from reaction of compound treated tissue reactions was normalized to dilution factor and calculated percent A2A receptor occupancy was plotted using Graphpad Prizm software.

T1 sequence (P30543 whole entry): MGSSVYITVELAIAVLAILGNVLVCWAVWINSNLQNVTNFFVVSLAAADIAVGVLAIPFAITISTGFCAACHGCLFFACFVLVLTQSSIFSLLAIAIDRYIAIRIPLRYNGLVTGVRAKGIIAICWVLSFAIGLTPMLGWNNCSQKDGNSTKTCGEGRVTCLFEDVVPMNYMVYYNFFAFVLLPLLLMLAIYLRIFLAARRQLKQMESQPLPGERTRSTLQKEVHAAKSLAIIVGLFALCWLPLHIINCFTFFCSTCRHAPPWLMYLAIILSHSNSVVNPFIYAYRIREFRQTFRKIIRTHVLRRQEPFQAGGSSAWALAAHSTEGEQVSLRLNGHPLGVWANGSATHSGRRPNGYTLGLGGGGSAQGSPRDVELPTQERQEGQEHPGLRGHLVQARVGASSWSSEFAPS

receptor occupancy at 0.1 mg/kg (0.1 mg/kg PO, 3 hours, dose response study): 51%
receptor occupancy at 0.3 mg/kg (0.3 mg/kg PO, 3 hours, dose response study): 56%
receptor occupancy at 1 mg/kg (3 hours, dose response study): 74%
receptor occupancy at 1 mg/kg (3 hrs, time course study): 65%
receptor occupancy at 1 mg/kg (6 hrs, time course study): 33%
receptor occupancy at 1 mg/kg (12 hrs, time course study): 39%
receptor occupancy at 1 mg/kg (18 hrs, time course study): 17%
Structure (SMILES): COCCOc1ccc(N2CCN(CCn3ncc4c3nc(N)n3nc(-c5ccco5)nc43)CC2)cc1 [preladenant]
